# Experimental data published in PubChem BioAssay (NCATS).
# “And” between values parts separate entries of the source, which are not always exact repeats. Equal values may be shown once. For some assays here: “Side channel” marks fits to a control or component signal instead of the main read-out. The source made the active and inactive calls. Unless noted, calls follow the shape of the dose curve; as a rule, active = well fitted curve in the direction sought with a large enough effect; inconclusive = small, poorly fitted or top-dose-only effect, or another doubt; inactive = no such curve, though single readings can be large; an effect the other way counts as inactive or inconclusive.
# What was measured:
# [1] = qHTS for Inhibitors of ATXN expression: Validation (AID 588378); settings: cell-based ATXN2 expression reporter assay, luminescence; series mostly up to 57.1 µM; also: nearly all actives have a fitted effect of over 75% in size
# Procedure, shortened: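 HEK293 cells carrying ATXN2-firefly luciferase reporter, treated with compound 24 h at 37 °C. Viability read first by CellTiter-Fluor (405/525 nm), then reporter expression by Bright-Glo luminescence; controls were a known ATXN2 expression inhibitor and a luciferase inhibitor.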
# [2] = target: Ubiquitin carboxyl-terminal hydrolase 1 (Homo sapiens) (UniProt O94782); experiment: Inhibitors of USP1/UAF1: Pilot qHTS (AID 504865); settings: purified USP1/UAF1, Ub-rhodamine cleavage fluorescence; series mostly up to 114 µM;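 also: rhodamine fluorescence freed from ubiquitin-rhodamine substrate followed over time; nearly all actives have a fitted effect of over 35% in size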
# Procedure, shortened: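 USP1/UAF1 complex at 1 nM preincubated 15 min at room temperature with compound, then Ub-Rho substrate added at 150 nM final. Fluorescence (480/540 nm) read kinetically in 50 mM HEPES pH 7.8, 0.5 mM EDTA, 1 mM TCEP, 0.1 mg/ml BSA, 0.01% Tween-20.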
# [3] = target: Estrogen receptor (Homo sapiens) (UniProt P03372); experiment: qHTS assay for small molecule antagonists of estrogen receptor alpha signaling (AID 588513; active = well fitted curve in the direction sought with a large enough effect in the signal ratio, with a control signal flat, not every such curve was filed as active; inconclusive = small, poorly fitted or top-dose-only effect, or effect the other way, or a change in a side signal; inactive = no such curve, though single readings can be large or run the other way; the % refers to the signal ratio; as to activity, negative = inhibition: % is scaled to controls: 0 for no effect and ±100 for the full control effect); settings: ER-alpha-UAS-bla HEK293, beta-lactamase ratio, antagonist mode; activity, negative = inhibition: at 76.9 µM (top of the series) unless noted
# Procedure, shortened: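 ER-alpha-UAS-bla GripTite HEK 293 cells in 2% charcoal/dextran-treated FBS medium; compounds titrated (1:2, duplicate), then stimulated with 0.5 nM 17-beta-estradiol for 18 h at 37C. CCF4 beta-lactamase fluorescence; Hill-fit IC50 and efficacy.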
# [4] = target: Estrogen receptor (Homo sapiens) (UniProt P03372); experiment: qHTS assay for small molecule agonists of estrogen receptor alpha signaling (AID 588514; calls by dose curve; also: nearly all actives have a fitted effect of over 70% in size;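 as to activation: 0% = vehicle only and 100% = reference agonist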); settings: ER-alpha-UAS-bla HEK293, beta-lactamase ratio, 18 h; activation: at 76.8 µM (top of the series), percent of full estradiol response, vehicle zero
# Procedure, shortened: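 EC50 and efficacy came from Hill fits of beta-lactamase reporter signal (CCF4 dye, 2 h at room temperature) scaled between DMSO and 20 nM 17-beta-estradiol. Agonist mode: HEK293 ER-alpha-UAS-bla cells in charcoal/dextran-stripped serum medium, 18 h compound exposure at 37 C.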
# [5] = qHTS for Inhibitors of ATXN expression: Validation of Cytotoxic Assay (AID 588349); settings: cytotoxicity counter-screen for ATXN expression inhibitors, cell viability; series mostly up to 57.1 µM
# Procedure, shortened: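 Cytotoxicity counter-screen: ATP-based luminescent viability (CellTiter Glo) after 72 hr exposure of HEK293 cells to a compound titration at 37 degrees C.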
# Potency is read from the fitted curve at half-maximal effect; tags tell the direction and shape of the fitted curve or compound fluorescence and quenching.
# Sequence of UniProt P03372 (P03372 whole entry, looked up): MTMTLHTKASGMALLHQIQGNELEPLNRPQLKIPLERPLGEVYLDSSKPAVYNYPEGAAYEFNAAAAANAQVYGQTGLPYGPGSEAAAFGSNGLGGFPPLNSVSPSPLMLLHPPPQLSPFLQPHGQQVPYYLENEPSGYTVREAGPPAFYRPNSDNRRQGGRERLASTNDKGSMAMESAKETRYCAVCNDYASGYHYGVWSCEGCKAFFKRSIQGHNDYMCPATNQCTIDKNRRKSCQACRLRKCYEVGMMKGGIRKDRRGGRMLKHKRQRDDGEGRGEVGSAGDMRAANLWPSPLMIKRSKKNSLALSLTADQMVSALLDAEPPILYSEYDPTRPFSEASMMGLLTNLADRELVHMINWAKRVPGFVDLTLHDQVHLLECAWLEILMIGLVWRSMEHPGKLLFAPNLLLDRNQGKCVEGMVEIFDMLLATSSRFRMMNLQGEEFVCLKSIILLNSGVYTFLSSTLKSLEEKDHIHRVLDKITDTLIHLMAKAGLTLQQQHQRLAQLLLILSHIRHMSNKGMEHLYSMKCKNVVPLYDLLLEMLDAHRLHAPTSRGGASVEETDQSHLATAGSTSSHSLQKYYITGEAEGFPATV
# Sequence of UniProt O94782 (O94782 whole entry, looked up): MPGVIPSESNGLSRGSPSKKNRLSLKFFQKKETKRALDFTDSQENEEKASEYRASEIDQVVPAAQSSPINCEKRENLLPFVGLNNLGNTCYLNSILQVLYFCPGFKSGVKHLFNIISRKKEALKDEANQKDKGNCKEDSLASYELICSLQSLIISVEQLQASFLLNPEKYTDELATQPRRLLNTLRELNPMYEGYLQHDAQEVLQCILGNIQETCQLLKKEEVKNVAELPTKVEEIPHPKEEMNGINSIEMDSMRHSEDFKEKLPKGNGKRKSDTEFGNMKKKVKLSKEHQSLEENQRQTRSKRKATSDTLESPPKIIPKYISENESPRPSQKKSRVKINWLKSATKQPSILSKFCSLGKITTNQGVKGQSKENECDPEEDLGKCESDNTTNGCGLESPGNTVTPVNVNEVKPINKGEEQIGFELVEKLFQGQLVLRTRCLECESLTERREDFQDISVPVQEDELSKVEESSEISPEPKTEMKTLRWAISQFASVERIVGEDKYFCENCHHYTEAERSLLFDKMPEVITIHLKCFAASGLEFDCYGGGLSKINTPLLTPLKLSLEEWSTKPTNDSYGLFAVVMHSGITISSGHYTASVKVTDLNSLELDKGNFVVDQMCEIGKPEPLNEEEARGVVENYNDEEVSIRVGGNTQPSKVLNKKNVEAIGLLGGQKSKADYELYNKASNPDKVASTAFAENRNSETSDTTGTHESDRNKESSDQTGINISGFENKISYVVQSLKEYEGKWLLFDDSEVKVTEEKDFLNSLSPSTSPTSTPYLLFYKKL
smiles,measurement,setting,value
CCN1CCc2nc(N)oc2CC1,Potency,[1],inactive
CC(C(=O)O)c1ccc(CC2CCCC2=O)cc1 (stereo unspecified),Potency,[1],inactive
Cc1c(C)c2c(c(C)c1O)CCC(C)(COc1ccc(CC3SC(=O)NC3=O)cc1)O2 (stereo unspecified),Potency,[2],"inconclusive: 56.2 µM [inhibitor, partial curve, poor fit]"
same,Potency,[3],"inconclusive: 17.8 µM [fluorescent, side channel, full curve]"
same,Potency,[4],"inconclusive: 44.7 µM [side channel, rising, single point]"
COC(=O)[C@@H]1[C@H]2C[C@H]3c4[nH]c5ccccc5c4CCN3C[C@@H]2CC[C@@H]1O,Potency,[1],"inconclusive: 22.4 µM [inhibitor, single point]"
CN(C)/N=N/c1nc[nH]c1C(N)=O,Potency,[3],"inconclusive: 44.7 µM [falling, single point]"
CN(C(=O)CCCOc1ccc2[nH]c(=O)ccc2c1)C1CCCCC1,Potency,[1],inactive
CC(C(O)c1ccc(O)cc1)N1CCC(Cc2ccccc2)CC1 (stereo unspecified),Potency,[5],"inconclusive: 31.6 µM [cytotoxic, partial curve]"
same,Potency,[1],"inconclusive: 28.2 µM [inhibitor, partial curve]"
O=c1n(CCCN2CCN(c3cccc(Cl)c3)CC2)nc2ccccn12,Potency,[5],inactive
CC(O)CO (stereo unspecified),Potency,[3],inactive
same,activation,[4],inconclusive: 45.9%
CCOc1ccc2c(c1)C(C)=CC(C)(C)N2,Potency,[2],"inconclusive: 17.8 µM [inhibitor, partial curve]"
same,Potency,[3],"inconclusive: 44.7 µM [fluorescent, side channel, partial curve, poor fit]"
same,Potency,[4],"inconclusive: 35.5 µM [fluorescent, side channel, partial curve, poor fit]"
CCOC(=O)[C@H](CCc1ccccc1)N[C@@H](C)C(=O)N1[C@H](C(=O)O)C[C@H]2CCCC[C@@H]21,Potency,[5],inactive
CC(CN1c2ccccc2Sc2ccccc21)N(C)C (stereo unspecified),Potency,[5],"inconclusive: 28.2 µM [cytotoxic, partial curve, poor fit]"
same,Potency,[1],active: 17.8 µM
CNCCC(Oc1ccccc1OC)c1ccccc1 (stereo unspecified),Potency,[1],"inconclusive: 11.2 µM [inhibitor, partial curve]"
Nc1nc(N)c2nc(CNc3ccc(C(=O)NC(CCC(=O)O)C(=O)O)cc3)cnc2n1 (stereo unspecified),Potency,[5],inactive
same,"activity, negative = inhibition",[3],inconclusive: -22.8%
same,activation,[4],inconclusive: -4.78%
NC(N)=NC(N)=NCCc1ccccc1,"activity, negative = inhibition",[3],inconclusive: 0.409%
COC(=O)c1ccc(O)cc1,"activity, negative = inhibition",[3],inconclusive: 3.44%
CC(C)(C)CC(C)(C)c1ccc(OCCOCC[N+](C)(C)Cc2ccccc2)cc1,Potency,[3],active: 44.7 µM [inconclusive]
same,activation,[4],inconclusive: 36.9%
C[n+]1cc2c3c(ccc2c2ccc4cc5c(cc4c21)OCO5)OCO3,Potency,[5],active: 3.55 µM
same,Potency,[1],active: 6.31 µM
CC1(C)C(C=C(Cl)Cl)C1C(=O)OCc1cccc(Oc2ccccc2)c1 (stereo unspecified),"activity, negative = inhibition",[3],inconclusive: -14.6% and inconclusive: 8.53%
CC(CN(C)C)CN1c2ccccc2CCc2ccccc21 (stereo unspecified),Potency,[5],"inconclusive: 22.4 µM [cytotoxic, partial curve, poor fit]"
same,Potency,[1],"inconclusive: 12.6 µM [inhibitor, partial curve, poor fit]"
CCN(Cc1ccncc1)C(=O)C(CO)c1ccccc1 (stereo unspecified),Potency,[5],inactive
COc1cc(C(=O)OCCCN2CCCN(CCCOC(=O)c3cc(OC)c(OC)c(OC)c3)CC2)cc(OC)c1OC,Potency,[5],"inconclusive: 15.8 µM [cytotoxic, partial curve, poor fit]"
Cc1cc2c(C(C)C)c(O)c(O)c(C=O)c2c(O)c1-c1c(C)cc2c(C(C)C)c(O)c(O)c(C=O)c2c1O,activation,[4],inconclusive: -8.01%
CC(=O)Oc1ccc(C(c2ccc(OC(C)=O)cc2)c2ccccn2)cc1,Potency,[3],"inconclusive: 44.7 µM [falling, single point]"
same,Potency,[4],"inconclusive: 2.24 µM [activator, full curve]"
CC(=O)O[C@]1(C(C)=O)CC[C@H]2[C@@H]3C[C@H](C)C4=CC(=O)CC[C@]4(C)[C@H]3CC[C@@]21C,"activity, negative = inhibition",[3],inconclusive: 12.2%
same,activation,[4],inconclusive: 98.2%
CCN(CC)CCCC(C)Nc1ccnc2cc(Cl)ccc12 (stereo unspecified),Potency,[5],"inconclusive: 15.8 µM [cytotoxic, partial curve, poor fit]"
same,Potency,[1],"inconclusive: 14.1 µM [inhibitor, partial curve, poor fit]"
